This note sets out measurements from article PMC9911399, “Two distinct binding modes provide the RNA-binding protein RbFox with extraordinary sequence specificity”.

Sequences and labels used below:
B1: ACCCUUG (DNA:RNA)
RNA: GGGAGACCGGAAUUCAGAUUGUCCACCCUUGUUAAAUCCCGUCGUAGCCACCA
DNA 1: CAATCTGAATTCCGGTCTCCC
DNA 2: TGGTGGCTACGACGGGATT
B2: GCAGCAC (DNA:RNA)
RNA: B1 RNA with A25G, C27A, C28G, U29C, U30A, G31C
DNA 1: CAATCTGAATTCCGGTCTCCC
DNA 2: TGGTGGCTACGACGGGATT
B3: CAAUACU (DNA:RNA)
RNA: GGGAGACCGGAAUUCAGAUUGUCCCAAUACUUUAAAUCCCGUCGUAGCCACCA
DNA 1: CAATCTGAATTCCGGTCTCCC
DNA 2: TGGTGGCTACGACGGGATT
B4: UGGAACC (DNA:RNA)
RNA: B3 RNA with C25U, A26G, A27G, U28A, U31C
DNA 1: CAATCTGAATTCCGGTCTCCC
DNA 2: TGGTGGCTACGACGGGATT
B5: ACAACUU (DNA:RNA)
RNA: B1 RNA with C27A, C28A, U29C, G31U
DNA 1: CAATCTGAATTCCGGTCTCCC
DNA 2: TGGTGGCTACGACGGGATT
B6: CUCCGAA (DNA:RNA)
RNA: B1 RNA with A25C, C26U, U29G, U30A, G31A
DNA 1: CAATCTGAATTCCGGTCTCCC
DNA 2: TGGTGGCTACGACGGGATT
B7: CCUGGCC (DNA:RNA)
RNA: B3 RNA with A26C, A27U, U28G, A29G, U31C
DNA 1: CAATCTGAATTCCGGTCTCCC
DNA 2: TGGTGGCTACGACGGGATT
B8: UAUAACC (DNA:RNA)
RNA: B3 RNA with C25U, A27U, U28A, U31C
DNA 1: CAATCTGAATTCCGGTCTCCC
DNA 2: TGGTGGCTACGACGGGATT
B9: CAUGCUC (DNA:RNA)
RNA: B3 RNA with A27U, U28G, A29C, C30U, U31C
DNA 1: CAATCTGAATTCCGGTCTCCC
DNA 2: TGGTGGCTACGACGGGATT
B10: GCCGUUC (DNA:RNA)
RNA: B1 RNA with A25G, C28G, G31C
DNA 1: CAATCTGAATTCCGGTCTCCC
DNA 2: TGGTGGCTACGACGGGATT
B11: UCUAAAC (DNA:RNA)
RNA: B1 RNA with A25U, C27U, C28A, U29A, U30A, G31C
DNA 1: CAATCTGAATTCCGGTCTCCC
DNA 2: TGGTGGCTACGACGGGATT
B12: ACGGCCA (DNA:RNA)
RNA: B1 RNA with C27G, C28G, U29C, U30C, G31A
DNA 1: CAATCTGAATTCCGGTCTCCC
DNA 2: TGGTGGCTACGACGGGATT
B13: CCACUUC (DNA:RNA)
RNA: B1 RNA with A25C, C27A, G31C
DNA 1: CAATCTGAATTCCGGTCTCCC
DNA 2: TGGTGGCTACGACGGGATT
B14: AUGAUAC (DNA:RNA)
RNA: B1 RNA with C26U, C27G, C28A, U30A, G31C
DNA 1: CAATCTGAATTCCGGTCTCCC
DNA 2: TGGTGGCTACGACGGGATT
B15: UGCCCGG (DNA:RNA)
RNA: B1 RNA with A25U, C26G, U29C, U30G
DNA 1: CAATCTGAATTCCGGTCTCCC
DNA 2: TGGTGGCTACGACGGGATT
B16: GCCUUGA (DNA:RNA)
RNA: B1 RNA with A25G, C28U, U30G, G31A
DNA 1: CAATCTGAATTCCGGTCTCCC
DNA 2: TGGTGGCTACGACGGGATT
B17: UGAGGUA (DNA:RNA)
RNA: B1 RNA with A25U, C26G, C27A, C28G, U29G, G31A
DNA 1: CAATCTGAATTCCGGTCTCCC
DNA 2: TGGTGGCTACGACGGGATT
B18: GGUAAAC (DNA:RNA)
RNA: B3 RNA with C25G, A26G, A27U, U28A, C30A, U31C
DNA 1: CAATCTGAATTCCGGTCTCCC
DNA 2: TGGTGGCTACGACGGGATT
B19: UCUUCCA (DNA:RNA)
RNA: B3 RNA with C25U, A26C, A27U, A29C, U31A
DNA 1: CAATCTGAATTCCGGTCTCCC
DNA 2: TGGTGGCTACGACGGGATT
B20: CAUAUUU (DNA:RNA)
RNA: B3 RNA with A27U, U28A, A29U, C30U
DNA 1: CAATCTGAATTCCGGTCTCCC
DNA 2: TGGTGGCTACGACGGGATT
B21: UUGCCAU (DNA:RNA)
RNA: B1 RNA with A25U, C26U, C27G, U29C, U30A, G31U
DNA 1: CAATCTGAATTCCGGTCTCCC
DNA 2: TGGTGGCTACGACGGGATT
B22: UAUGUCC (DNA:RNA)
RNA: B3 RNA with C25U, A27U, U28G, A29U, U31C
DNA 1: CAATCTGAATTCCGGTCTCCC
DNA 2: TGGTGGCTACGACGGGATT
B23: CGCUUUG (DNA:RNA)
RNA: B1 RNA with A25C, C26G, C28U
DNA 1: CAATCTGAATTCCGGTCTCCC
DNA 2: TGGTGGCTACGACGGGATT
B24: UUGGACA (DNA:RNA)
RNA: B3 RNA with C25U, A26U, A27G, U28G, U31A
DNA 1: CAATCTGAATTCCGGTCTCCC
DNA 2: TGGTGGCTACGACGGGATT
B25: CGAUAUC (DNA:RNA)
RNA: B3 RNA with A26G, C30U, U31C
DNA 1: CAATCTGAATTCCGGTCTCCC
DNA 2: TGGTGGCTACGACGGGATT
B26: CAAUAGA (DNA:RNA)
RNA: B3 RNA with C30G, U31A
DNA 1: CAATCTGAATTCCGGTCTCCC
DNA 2: TGGTGGCTACGACGGGATT
B27: CAUACCC (DNA:RNA)
RNA: B3 RNA with A27U, U28A, A29C, U31C
DNA 1: CAATCTGAATTCCGGTCTCCC
DNA 2: TGGTGGCTACGACGGGATT
B28: CGUGAGC (DNA:RNA)
RNA: B3 RNA with A26G, A27U, U28G, C30G, U31C
DNA 1: CAATCTGAATTCCGGTCTCCC
DNA 2: TGGTGGCTACGACGGGATT
B29: UAAUCGA (DNA:RNA)
RNA: B3 RNA with C25U, A29C, C30G, U31A
DNA 1: CAATCTGAATTCCGGTCTCCC
DNA 2: TGGTGGCTACGACGGGATT
B30: GGGAAGC (DNA:RNA)
RNA: B3 RNA with C25G, A26G, A27G, U28A, C30G, U31C
DNA 1: CAATCTGAATTCCGGTCTCCC
DNA 2: TGGTGGCTACGACGGGATT
B31: AGGAGAU (DNA:RNA)
RNA: B1 RNA with C26G, C27G, C28A, U29G, U30A, G31U
DNA 1: CAATCTGAATTCCGGTCTCCC
DNA 2: TGGTGGCTACGACGGGATT

Where a chain is given by its changes, count along the chain named. Some of the results follow.

For the assay, the target named is T1, RBFOX1 RRM (Homo sapiens, UniProt Q9NWB1 109-208).
T1 sequence: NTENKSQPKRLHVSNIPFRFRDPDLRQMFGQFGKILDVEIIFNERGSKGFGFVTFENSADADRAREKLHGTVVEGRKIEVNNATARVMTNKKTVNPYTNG
Nature of the assay: EMSA; HiTS-Eq, 1 nM pool, 10 min; buffer printed only for the single-RNA assays: 10 mM Tris pH 7.5, 150 mM NaCl, 3.4 mM EDTA, 0.001% NP-40, 30 C. To be noted: tags: His6 N-terminal (pET28a); label: 5' 32P. In a few lines: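 Purified RbFox RRM, wild type or mutant, was incubated for 10 min in 50 µL with 1 nM of a 5′-radiolabelled RNA pool carrying 7 randomized nucleotides, whose flanks were annealed to DNA oligonucleotides, over a series of increasing protein concentrations. Unbound RNA was resolved on 8% native PAGE, cut out, reverse-transcribed, barcoded by PCR and sequenced on an Illumina HiSeq 2500. Relative association constants were derived from changes in read counts for each RNA species versus the control reaction and normalised to the cognate motif.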
(A gel shift assay detects complexes by their altered migration in electrophoresis.)
Consider B1, for which the binding signal was 0.00413 KA relative to UGCAUGU.

For the molecule B2, the binding signal is 0.0121 KA relative to UGCAUGU.

Consider B3, for which the binding signal is 0.000575 KA relative to UGCAUGU.

With B4, the binding signal is 0.0158 KA relative to UGCAUGU.

Consider B5, for which the binding signal was 0.000268 KA relative to UGCAUGU.

In the case of B6, the binding signal was 0.00563 KA relative to UGCAUGU.

Take B7: the binding signal was 0.0142 KA relative to UGCAUGU.

Regarding B8, the binding signal is 0.0015 KA relative to UGCAUGU.

Regarding B9, the binding signal is 0.00669 KA relative to UGCAUGU.

As to B10, the binding signal is 0.0165 KA relative to UGCAUGU.

As to B11, the binding signal was 0.00203 KA relative to UGCAUGU.

Take B12: the binding signal was 0.00664 KA relative to UGCAUGU.

On to B13, for which the binding signal is 0.00413 KA relative to UGCAUGU.

Turning to B14, the binding signal was 0.00543 KA relative to UGCAUGU.

Regarding B15, the binding signal is 0.0184 KA relative to UGCAUGU.

Consider B16, for which the binding signal was 0.0236 KA relative to UGCAUGU.

On to B17, for which the binding signal was 0.011 KA relative to UGCAUGU.

B18: the binding signal is 0.0055 KA relative to UGCAUGU.

Consider B19, for which the binding signal is 0.00385 KA relative to UGCAUGU.

In the case of B20, the binding signal is 0.000794 KA relative to UGCAUGU.

Consider B21, for which the binding signal is 0.0121 KA relative to UGCAUGU.

Take B22: the binding signal was 0.0122 KA relative to UGCAUGU.

As for B23, the binding signal was 0.0189 KA relative to UGCAUGU.

As for B24, the binding signal was 0.00265 KA relative to UGCAUGU.

As for B25, the binding signal is 0.0051 KA relative to UGCAUGU.

Regarding B26, the binding signal was 0.00325 KA relative to UGCAUGU.

With B27, the binding signal was 0.000624 KA relative to UGCAUGU.

Take B28: the binding signal is 0.0149 KA relative to UGCAUGU.

Consider B29, for which the binding signal was 0.0078 KA relative to UGCAUGU.

For the molecule B30, the binding signal was 0.036 KA relative to UGCAUGU.

On to B31, for which the binding signal is 0.0167 KA relative to UGCAUGU.
